Measured values taken from paper PMC3227635.
No constants are given. Whether binding was seen depends on the method and setting. Binding seen in cells or lysates may run through a third protein. Some binding calls cover weakened binding; strength is not graded here. For part of these data: Sequences can lack the tags named with a protein.

What was measured:
Assay in all cases: pull-down
[1] = biological target: His6-MoaD1 (M. bovis MoaD1 with an N-terminal His6-tag) (M. bovis) (UniProt L7N6B4)
[2] = biological target: T1, His6-CysO (M. bovis CysO with an N-terminal His6-tag) (M. bovis) (UniProt P0A647)
T1 sequence: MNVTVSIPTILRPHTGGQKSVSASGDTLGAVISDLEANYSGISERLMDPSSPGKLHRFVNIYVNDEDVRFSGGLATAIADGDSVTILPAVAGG

[3] = biological target: His6-MoaD2 (M. bovis MoaD2 with an N-terminal His6-tag) (M. bovis)

Row | Substance | binding [1] | binding [2] | binding [3]
1 | MBP-MoeZR (M. tuberculosis MoeZR with an N-terminal MBP-tag) (from UniProt P9WMN7 1-392) (enzyme) | binds | binds | binds
2 | MBP-MoeBR (M. tuberculosis MoeBR with an N-terminal MBP-tag) (from UniProt A5U7D1 1-389) (enzyme) | binds | no binding | binds
